# Results published in PubChem BioAssay (NCATS).
# Inconclusive results are not listed. Unless noted, calls come from the whole dose curve. Some compounds were tested as several samples or in several runs, with calls that do not always agree. Not every entry of the source has a single result; some have several. Only these are listed. The source may hold further records. Results that share an entry are repeats across runs, samples, wells, individuals or studies. A tag in brackets gives the origin of a value. The letters are not those of the source and start again with each entry.
# System: not listed separately
# Assay: qHTS for Inhibitors of the Functional Ribonucleoprotein Complex (vRNP) of Lymphocytic Choriomeningitis Arenaviruses (LCMV): Viability assay - alamar blue signal for LCMV Primary Screen (AID 1347085; calls by dose curve; tested in HEK293 reporter line; note: nearly all actives have a fitted effect of over 80% in size)
# Settings: alamar blue viability counter-screen, LCMV vRNP screen cells; series mostly up to 57.5 µM
# Potency is the fitted concentration of half-maximal effect.
row,SMILES,Potency
1,Nc1ncn([C@H]2C[C@H](O)[C@@H](CO)O2)c(=O)n1,inactive [sample A] and active: 21.7 µM [sample B]
2,CC(C)Cc1ccc(C(C)C(=O)O)cc1 (centres undefined),inactive [sample A] and inactive [sample B] and active: 10.6 µM [sample C]
3,Nc1cc(C(Cl)=C(Cl)Cl)c(S(N)(=O)=O)cc1S(N)(=O)=O,active: 7.69 µM [sample A] and inactive [sample B]
4,O=C(NCC1CCCCN1)c1cc(OCC(F)(F)F)ccc1OCC(F)(F)F (centres undefined),active: 13.7 µM [sample A] and inactive [sample B]
5,CC(C(=O)O)c1ccc2c(c1)CC(=O)c1ccccc1S2 (centres undefined),active: 4.32 µM [sample A] and inactive [sample B]
6,Nc1nc2ccc(OC(F)(F)F)cc2s1,inactive [sample A] and active: 4.32 µM [sample B] and inactive [sample C]

# Target: Nucleoprotein (Lymphocytic choriomeningitis virus (strain Armstrong)) (UniProt P09992)
# Assay: qHTS for Inhibitors of the Functional Ribonucleoprotein Complex (vRNP) of Lymphocytic Choriomeningitis Arenaviruses (LCMV): LCMV Primary Screen - GLuc reporter signal (AID 1347086); note: nearly all actives have a fitted effect of over 70% in size
# Settings: LCMV minigenome vRNP cell assay, Gaussia luciferase reporter; series mostly up to 57.5 µM
# Sequence of UniProt P09992 (P09992 whole entry, looked up): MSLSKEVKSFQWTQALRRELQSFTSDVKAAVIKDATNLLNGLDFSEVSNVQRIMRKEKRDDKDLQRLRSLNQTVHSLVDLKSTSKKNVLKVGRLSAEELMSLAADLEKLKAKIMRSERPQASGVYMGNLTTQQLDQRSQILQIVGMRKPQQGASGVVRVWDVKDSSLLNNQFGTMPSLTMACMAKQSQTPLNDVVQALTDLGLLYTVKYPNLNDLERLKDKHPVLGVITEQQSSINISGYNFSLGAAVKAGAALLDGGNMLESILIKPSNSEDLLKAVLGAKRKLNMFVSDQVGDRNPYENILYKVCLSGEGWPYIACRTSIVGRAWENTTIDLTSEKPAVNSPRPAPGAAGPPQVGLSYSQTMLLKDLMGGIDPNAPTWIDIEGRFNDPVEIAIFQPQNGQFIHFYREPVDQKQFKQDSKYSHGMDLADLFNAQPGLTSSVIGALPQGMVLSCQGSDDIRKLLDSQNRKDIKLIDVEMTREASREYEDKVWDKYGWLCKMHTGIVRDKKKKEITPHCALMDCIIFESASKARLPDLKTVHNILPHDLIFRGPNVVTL
row,SMILES,Potency
1,CC(C(=O)O)c1ccc2c(c1)CC(=O)c1ccccc1S2 (centres undefined),active: 5.44 µM [sample A] and inactive [sample B]
2,NC(=O)c1cnccn1,inactive [sample A] and inactive [sample B] and active: 19.3 µM [sample C]
3,Cc1ncc([N+](=O)[O-])n1CC(C)O (centres undefined),inactive [sample A] and active: 21.7 µM [sample B]
